Data from article PMC5515408.
Some of the results follow. At the low end of the ranking the order means little.

test system: MYC (p64) + MAX (p21), in MYC:MAX; assay: protein-binding microarray (anti-MAX antibody); details: PBM: 15 mM Tris-HCl pH 7.5, 100 mM KCl, 0.075% NP40, 7.5 mM beta-mercaptoethanol, 375 ng/ul BSA, 8 ng/ul poly(dA-dT):(dA-dT), 550 ng complex, 60 min, room …; high values mean tight binding; double strand, one strand shown; sequences stand for … in CCGGC…TTAATAGCTAAGATTACTATATCGACG

| Sequence | binding signal (log2 normalized fluorescence) |
| --- | --- |
| AATCACGTGGTA | 0.75 |
| TGATTGGCGGTA | -0.0843 |
| TGAAATAGTGTA | 0.0457 |
| TGATCTTCGGTA | -0.267 |
| TGACTGGAAGTA | 0.0371 |
| TAACAGGTGATA | 0.412 |
| TGACACGTGCGT | 0.597 |
| TGACTCTACGTA | 0.179 |
| TGAAACAATGTA | 0.152 |
| TGATCTTTGGTA | -0.146 |
| TGATAATTTGTA | -0.19 |
| TGACGAATAGTA | -0.0399 |
| TGTGGCGTGGTA | 0.452 |
| TAACACGCGGTA | 0.819 |
| TGACGGACTGTA | 0.0984 |
| TGATTAAGGGTA | -0.0226 |
| TGAAACGTGGAC | 0.506 |
| TGACAGAGGGTA | 0.0838 |
| TGAAACCTCGTA | 0.163 |
| TGAATTTGTGTA | -0.0827 |
| TGAATGTCCGTA | 0.208 |
| TGACCACCAGTA | 0.337 |
| TGACAGTGTGTA | 0.358 |

| Sequence | binding signal (log2 normalized fluorescence) |
| --- | --- |
| TGATACCCCGTA | -0.0644 |
| TGAAATGTAGTA | 0.0682 |
| TGAGTATGTGTA | 0.0231 |
| TGAAAAAGTGTA | 0.0869 |
| TGATTTAGAGTA | -0.177 |
| TGAGAGTCCGTA | -0.0888 |
| TGAATGTGGGTA | 0.285 |
| TGAGGCCATGTA | 0.202 |
| TGATATGCTGTA | -0.0984 |
| TCACACGCGGTT | 0.822 |
| TGATGCGTAGTA | 0.158 |
| TGACCGATAGTA | -0.0965 |
| TGATGATTTGTA | -0.0486 |
| TTGCACGTGGTT | 0.716 |
| TGAGGTTCCGTA | -0.136 |
| TGACATCAGGTA | 0.0135 |
| TGAGGAGCCGTA | -0.035 |
| CAAATACAGAGC | -0.0563 |
| TGAGTATCAGTA | -0.177 |
| TGAGAACCCGTA | 0.133 |
| TGAGTATATGTA | -0.133 |
| TGACTATCCGTA | -0.00348 |
| TGAGTGTCTGTA | 0.217 |

| Sequence | binding signal (log2 normalized fluorescence) |
| --- | --- |
| TGAAGATTGGTA | -0.185 |
| ACACACCTGGTA | 0.535 |
| TGACACTCAGTA | 0.215 |
| TGATCTACTGTA | 0.103 |
| TGATATTCGGTA | -0.126 |
| TGAGCATTAGTA | 0.01 |
| TGAGCAGAGGTA | 0.0598 |
| TGAAACTGCGTA | 0.16 |
| TGATAACCTGTA | 0.136 |
| TGAGAAGAAGTA | -0.209 |
| TGAAATTATGTA | -0.0628 |
| TGACAAGGGGTA | 0.364 |
| TGACAAGCGGGA | 0.16 |
| AAGTAGCGCACA | 0.538 |
| TGAAGCCTTGTA | -0.0498 |
| TGAGAGCAAGTA | 0.116 |
| TGATTCGAAGTA | -0.235 |
| TGAATTCCCGTA | 0.003 |
| TGAGCATACGTA | 0.288 |
| AGGGTGTACTGG | 0.215 |
| TGAGACATCGTA | 0.0468 |
| TGATTTTGGGTA | -0.124 |
| TGATGAGAAGTA | -0.259 |
